Test results from US20230086530A1 (SHANGHAI ESCUGEN BIOTECHNOLOGY, published 2023).

Columns and labels:
[1] = target: T1, biotinylated-CD47 (ACRO Biosystems Cat. No. CD7-H82E9) (UniProt Q08722 fragment, biotinylated (site not stated)); assay: competition ELISA; blocked: biotinylated-CD47 binding to coated SIRPα-His
T1 construct: also called CD47 recombinant protein
Description: After rinsing 4 times with PBST, 200 μl of PBS+1% BSA was added to each well, blocking for 1 h at room temperature, and rinsing 4 times with PBST. […] The 96-well plate was rinsed 4 times with PBST, 100 μl of Steptavidin-HRP (Invitrogen #434323) diluted 1:2500 was added to each well, and incubated at room temperature for 1 h. After rinsing the 96-well plate four times with PBST, 100 μl of TMB substrate (Cell Signaling, Cat. No. 7004) was added to each well, and after color development at room temperature for 10 mins, 50 μl of stop solution was added to stop the reaction.

[2] = target: T2, huCD47-mFc (AcroBiosystems Cat. No. CD7-H52A5) (human, UniProt Q08722 fragment); assay: ELISA, coated huCD47-mFc
T2 construct: bought protein; also called human CD47 recombinant protein; huCD47 recombinant protein; not shown: mouse Fc (mFc)

[3] = target: T3, Human CD47 recombinant protein (Human CD47 His Tag), ACRO Biosystems Cat. No. CD7-H5227 (human, UniProt Q08722 fragment); assay: SPR BIAcore 8K, antibody captured by anti-human IgG Fc on CM5, huCD47 (His tag) in flow, 25 C, 1:1 model
T3 construct: bought protein; also called huCD47-His; huCD47; not shown: His tag
Description: (§1) The binding time of the huCD47 to the antibody was 180 s, the dissociation time was 900 s, and the reaction temperature was 25° C. The binding constant ka, the dissociation constant kd and the affinity KD were calculated by FitGlobal using BIAcore 8K Evaluation software (GE Healthcare) according to the 1:1 binding model.

[4] = target: T3, Human CD47 recombinant protein (Human …); assay: SPR Biacore T200, method as in Example 14, huCD47 (His tag) in flow
Description: as §1

[5] = target: T4, human CD47 on the cell membrane surface of CD47 positive tumor cells (Raji, NUGC-4, Jurkat) (human, UniProt Q08722); assay: flow cytometry, Jurkat cells
T4 construct: whole, on cells; also called huCD47 on the cell membrane surface; cell surface CD47

B1: DX-36699-IgG1 (DX-36699 VHH-Fc fusion antibody) (Fc fusion)
heavy: DVQLQASGGGSVEAGGSLTLSCLASGFYNMRWYRQAPGNERELVARIGIGGSTDYADSVKGRFTISRGNAKNMVHLQMNSLKPEDTAVYYCWGGGYWGQGTQVTVSS[human IgG1 Fc cut from this listing]
notes: bivalent VHH-Fc, human IgG1 hinge to CH3
IC50 (read off the curve) [1]: ~400 ng/mL | EC50 (read off the curve) [2]: ~3 ng/mL | Kd [3]: 0.454 nM | koff [3]: 5.67e-05 s⁻¹ | kon [3]: 125000 M⁻¹ s⁻¹

B2: DX-36699-IgG4 (Fc fusion)
heavy: DVQLQASGGGSVEAGGSLTLSCLASGFYNMRWYRQAPGNERELVARIGIGGSTDYADSVKGRFTISRGNAKNMVHLQMNSLKPEDTAVYYCWGGGYWGQGTQVTVSS[human IgG4 Fc with S228P (EU numbers) cut from this listing]
notes: 39 (human IgG4 hinge to CH3, S228P)
Kd [4]: 3.59 nM | koff [4]: 0.00047 s⁻¹ | kon [4]: 131000 M⁻¹ s⁻¹ | EC50 (read off the curve) [5]: ~0.1 nM

B3: DX-36699-H21 humanized VHH-Fc fusion bivalent recombinant antibody (IgG4 subtype) (Fc fusion)
heavy: EVQLLESGGGLVQPGGSLRLSCAASGFYNMRWYRQAPGNGLELVARIGIGGSTDYADSVKGRFTISRDNSKNTVYLQMNSLKPEDTAVYYCWGGGYWGQGTLVTVSS[human IgG4 Fc with S228P (EU numbers) cut from this listing]
notes: human IgG4 hinge to CH3, S228P
EC50 (read off the curve) [5]: ~0.2 nM

B4: DX-36699-H7 humanized VHH-Fc fusion bivalent recombinant antibody (IgG4 subtype) (Fc fusion)
heavy: EVQLLESGGGLVQPGGSLRLSCAASGFYNMRWYRQAPGNGLELVARIGIGGSTDYADSVKGRFTISRDNSKNTVYLQMNSLRAEDTAVYYCWGGGYWGQGTLVTVSS[human IgG4 Fc with S228P (EU numbers) cut from this listing]
notes: as for B3
EC50 (read off the curve) [5]: ~0.6 nM

B5: DX-36699-H19 humanized VHH-Fc fusion bivalent recombinant antibody (IgG4 subtype) (Fc fusion)
heavy: EVQLLESGGGVVQPGGSLRLSCAASGFYNMRWYRQAPGKGLELVARIGIGGSTDYADSVKGRFTISRDNSKNTVYLQMNSLKPEDTAVYYCWGGGYWGQGTLVTVSS[human IgG4 Fc with S228P (EU numbers) cut from this listing]
notes: as for B3
EC50 (read off the curve) [5]: ~0.4 nM

B6: DX-36699-H20 humanized VHH-Fc fusion bivalent recombinant antibody (IgG4 subtype) (Fc fusion)
heavy: EVQLVESGGGLVQPGGSLRLSCAASGFYNMRWYRQAPGKGLELVARIGIGGSTDYADSVKGRFTISRDNSKNTVYLQMNSLKPEDTAVYYCWGGGYWGQGTLVTVSS[human IgG4 Fc with S228P (EU numbers) cut from this listing]
notes: as for B3
Kd [4]: 5.71 nM | koff [4]: 0.000855 s⁻¹ | kon [4]: 150000 M⁻¹ s⁻¹ | EC50 (read off the curve) [5]: ~0.2 nM

B7: DX-36698-IgG1 (DX-36698 VHH-Fc fusion antibody) (Fc fusion)
heavy: QVQLVESGGGLVQAGGSLRLSCAASVRTFSIYAMGWFRQAPGKDREFVGAISGRGYTTYYVDSVKGRFTISRDNAKNTVYLQMNSLKPEDTAVYYCAADLYGSRRYADRESYDYWGQGTQVTVSS[human IgG1 Fc cut from this listing]
notes: as for B1
EC50 (read off the curve) [2]: ~3 ng/mL | Kd [3]: 5.01 nM | koff [3]: 0.000632 s⁻¹ | kon [3]: 126000 M⁻¹ s⁻¹
